According to paper PMC12136788:
This is one part of the list.

B1: ENSG00000198589:be:win_1|CDS|ENSG00000198589|bound_else_gene|NA|bound_elsewhere_windowed (ssRNA)
RNA: GGGAGUUCUACAGUCCGACGAUCAUGGCUAGCGAAGACAAUCGUGUCCCUUCCCCGCCACCAACAGGUGAUGACGGGGGAGGUGGAGGGAGAGAAGAAACCCCUACUGAAGGGGGUGCAUUGUCUCUGAAACCAGGGCUCCCCCAACAGAGGAUUGAGCAUCA
B2: chr1:200665936:200666740:-|CDS|ENSG00000118197|control|control|control (ssRNA)
RNA: GGGAGUUCUACAGUCCGACGAUCCUGGGAAUUUUAGUUCAAGGGCAAGAAGUCACCAGGCCCAUUAUUGACUUUGAACAUUGUAGUCUCCCUGAGGUCUUAAAUCACAACUUGAAGAAAUCAGGCUAUGAGGUGCCAACUCCCCAACAGAGGAUUGAGCAUCA
B3: chr15:59031169:59031386:+|CDS|ENSG00000157450|unk|total|mutant (ssRNA)
RNA: GGGAGUUCUACAGUCCGACGAUCACACCAAGUGAUGAAGAUAAUGAUUCCUCUUUCCGUGAUUGUCUUUCUUCUCCUUCAUCCCGUCUGCAUUUUGGAGAUUCUGAUACUGUGACUUCAGAUGAGGAUAAAGAAGUCUCUGUACAACAGAGGAUUGAGCAUCA
B4: chr20:50584425:50584526:+|3pUTR|ENSG00000196396|msi1|total|mutant (ssRNA)
RNA: GGGAGUUCUACAGUCCGACGAUCACCUCCUAUCCUUGGAGAGCAGCUGGCUCUCCACCUUGUUACACAUUAUGUCCGAGAGGCCGCGAGCUGCUCUGCUAUAUGCCUUAAGCCAAUAUUUACUCAUCAGGUCAUUAUUUUUUACAACAGAGGAUUGAGCAUCA
B5: chr2:73761781:73762859:-|three_prime_utr|ENSG00000144048|control|control|control (ssRNA)
RNA: GGGAGUUCUACAGUCCGACGAUCUAUUCACACAGGAGGUAUUCUUGGAAUGUGAAGCCCAAUGCCAGUCGGGCAGCCCAGGAUAGAAGAAGGUGGUAUCCUUAUAAUUACUCCAGACUCUCCUAUCCAGCCUGUUGGGAAUGGCAACAGAGGAUUGAGCAUCA
B6: chr4:55870735:55870847:+|CDS|ENSG00000090989|unk|total|mutant (ssRNA)
RNA: GGGAGUUCUACAGUCCGACGAUCGGCAUCUGAAAAACAAGUCAACAUCCUGAUGAAAUUGCCCGAUGAGGCUCUAAAGGAGGCCGAUCAGAUUGAAUUGAAACUGAGCAGUUAUGAGGAAAUGCUCCAAAGUGUAAAAGAACACAACAGAGGAUUGAGCAUCA
B7: chr20:37404728:37404829:+|3pUTR|ENSG00000197122|msi1|total|mutant (ssRNA)
RNA: GGGAGUUCUACAGUCCGACGAUCGGCCUCUGCAACUGCUCAGCUCUGGUCCAGGCCCUGUGGCAGGACACACAUGGUGAGCCCCGCCCUGGGACAUCAGGAGACUGGGCUCUGGCUCUGUUCGGCCUUUGGGUGUGUGGUGGACAACAGAGGAUUGAGCAUCA
B8: chr12:100625254:100625355:+|3pUTR|ENSG00000139354|unk|total|mutant (ssRNA)
RNA: GGGAGUUCUACAGUCCGACGAUCAUAUGUAUUAAAUAUGGAGUUCAUAUACCUGCUAAUAUCAACGGUGGUGCUCUUACUAUCCGUUAAUUGCAUUUUGGUUAAAAAAAAAAAAGCAACAGUUUGGCACUUGUCCUACAAAAGCAACAGAGGAUUGAGCAUCA
B9: chr9:96818597:96818698:-|CDS|ENSG00000196597|unk|FALSE|unique (ssRNA)
RNA: GGGAGUUCUACAGUCCGACGAUCGGAGAAACCAUUCGAAUGUCAUGAAUGUGGGAAAUCUUUUAACUAUAAGUCAAUCCUCAUAGUGCAUCAGAGAACUCACACAGGGGAGAAACCUUUUGAAUGUAAUGAAUGCGGGAAAUCCAACAGAGGAUUGAGCAUCA
B10: ENSG00000198589:be:win_451|CDS|ENSG00000198589|bound_else_gene|NA|bound_elsewhere_windowed (ssRNA)
RNA: GGGAGUUCUACAGUCCGACGAUCCUUUUGGUUGACAUGUUGGGAGUGCUGGCUAGCUAUAAUUUGACAGUUCGCGAGCUAAAGCUUUUCUUCAGUAAACUUCAAGGAGAUAAAGGACGAUGGCCUCCACAUGCUGGGAAGUUGCAACAGAGGAUUGAGCAUCA
B11: chr6:134965076:134965177:-|3pUTR|ENSG00000112339|unk|total|mutant (ssRNA)
RNA: GGGAGUUCUACAGUCCGACGAUCAAAGGAACAAUGUGCAAUUGAUAUGUUUUCCGAUGAGAGAGAAAAAUUAAAGCUAAAAUCCGCUGCAAAGAAGUAUUAAUAAUCACCUCUGCAAAAAUUCUAAGUUGCCAACUGGCAAAGCAACAGAGGAUUGAGCAUCA
B12: ENSG00000107863:be:win_801|CDS|ENSG00000107863|bound_else_gene|NA|bound_elsewhere_windowed (ssRNA)
RNA: GGGAGUUCUACAGUCCGACGAUCCAAUGAAAGUGUAAGGACUGUCAUUGUGCCUUCUGAGAAGGUUGUAGAUUUGUUAUCCAAUAGAAACAACCAUACAGGUCCUUCACAUAGAACUGAAGAAGUGAGGUAUGGCGUGAGUGACAACAGAGGAUUGAGCAUCA
B13: ENSG00000124766:be:win_3901|3pUTR|ENSG00000124766|bound_else_gene|NA|bound_elsewhere_windowed (ssRNA)
RNA: GGGAGUUCUACAGUCCGACGAUCAAUAUGCCGUGUAGAAUAUUUGUCUUAAAAUUCAAGGCCACAAAAACAAUGUUUGGGGGAAAAAAAAGAAAAAAUCAUGCCAGCUAAUCAUGUCAAGUUCACUGCCUGUCAGAUUGUUGACAACAGAGGAUUGAGCAUCA
B14: chr17:59694590:59694691:+|3pUTR|ENSG00000141367|msi1|FALSE|unique (ssRNA)
RNA: GGGAGUUCUACAGUCCGACGAUCCUUGUGUGUGUUUACUAACCCUUCCCUGAGGUUUGUGUAUGUUGGAUAUUGUGGUGUUUUAGAUCACUGAGUGUACAGAAGAGAGAAAUUCAAACAAAAUAUUGCUGUUCUUCAGUUUUGCAACAGAGGAUUGAGCAUCA
B15: chr3:179334266:179334377:+|CDS|ENSG00000121864|unk|FALSE|unique (ssRNA)
RNA: GGGAGUUCUACAGUCCGACGAUCUUAUUUAUGUCAAUAUUGUGAAUAUUCAACAGGACAAAUUGAAGAUCUUAAAAUUCAUCUAGAUUUCAAGCAUUCAGCUGACUUGCCUCAUAAAUGUAGUGACUGCUUGAUGAGGUUUGGCAACAGAGGAUUGAGCAUCA
B16: chr3:62294290:62294391:+|3pUTR|ENSG00000144724|msi1|FALSE|unique (ssRNA)
RNA: GGGAGUUCUACAGUCCGACGAUCAACUAGUCCUCUAAAAAUUCCCUAUUACUCCUAUAGCAAUCUAAUAAAAACUACCUACAUAGUUACUGUUUUCUUUCCUUCUUUGCCAAAUGUUUUAUAAUAAAUCUCUUAAUUACAUACCAACAGAGGAUUGAGCAUCA
B17: chr4:48579112:48579224:-|CDS|ENSG00000075539|unk|FALSE|bound_elsewhere (ssRNA)
RNA: GGGAGUUCUACAGUCCGACGAUCCUCUAUUGCCCUAGCUCGAUAGAUUUACAAACUUUAGCAGAAUGGAACUCUUCUCCUAUUAGCCACCAGUUUGAUGUGAUUAGUCCAUCACAUAUAUGGAUAUUUGCACAUGUGACCCAACAACAGAGGAUUGAGCAUCA
B18: ENSG00000096384:stop:overlap|stop_codon|ENSG00000096384|stop_codon|NA|stop_codon (ssRNA)
RNA: GGGAGUUCUACAGUCCGACGAUCCUGAUGAGAUCCCCCCUCUCGAGGGCGAUGAGGAUGCGUCUCGCAUGGAAGAAGUCGAUUAGGUUAGGAGUUCAUAGUUGGAAAACUUGUGCCCUUGUAUAGUGUCCCCAUGGGCUCCCACAACAGAGGAUUGAGCAUCA
B19: chr10:27170558:27170670:+|CDS|ENSG00000120539|unk|FALSE|unique (ssRNA)
RNA: GGGAGUUCUACAGUCCGACGAUCCUUAUGUGUGAACUCGAUGAAGACUGUGAAAAGAAUAGUAAGAGGGACUACUUAAGUUCUAGUUUUCUAUGUUCUGAUGAUGAUAGAGCUUCUAAAAAUAUUUCUAUGAACUCUGAUUCACAACAGAGGAUUGAGCAUCA
B20: chr19:21059139:21059240:+|3pUTR|ENSG00000118620|unk|FALSE|unique (ssRNA)
RNA: GGGAGUUCUACAGUCCGACGAUCGUAAAAAUGAAAAUAUUUAAUCCAAAAUUAAGUCUAUGUAAAUAUCAGAGAAUUUACUGUAGAAAUAUAUAAGGCACUGAGACUUCAGAUAUUAUACUAAAUCAGAGUGCUGAGUAUAGACAACAGAGGAUUGAGCAUCA
B21: chr8:39103990:39104232:+|3pUTR|ENSG00000168615|msi1|FALSE|unique (ssRNA)
RNA: GGGAGUUCUACAGUCCGACGAUCGUUUUGUCAUUAAGUGUUUAAGUGUUAUUCUGAAUUUUCUACCUUAGUUAUCAUUAAUGUAGUUCCUCAUUGAACAUGUGAUAAUCUAAUACCUGUGAAAACUGACUAAUCAGCUGCCAACAACAGAGGAUUGAGCAUCA
B22: chr12:49323620:49323721:+|CDS|ENSG00000135451|unk|FALSE|unique (ssRNA)
RNA: GGGAGUUCUACAGUCCGACGAUCAUCAUGACCACCCGGCAAGCCACGAAGGAUCCCCUCCUCCGGGGUGUAUCUCCUACCCCUAGCAAGAUUCCGGUACGCUCUCAGAAACGCACGCCUUUCCCCACUGUUACAUCGUGCGCCCAACAGAGGAUUGAGCAUCA

What follows are binders tested against MSI1 full-length (mouse, UniProt Q61474 1-362) (assay: nsRBNS (natural sequence RNA bind-n-seq); RBNS binding buffer (assumed for nsRBNS): 25 mM Tris pH 7.5, 150 mM KCl, 3 mM MgCl2, 0.01% Triton X-100, 500 ug/ml BSA, 20 U/ml SUPERase-In, 4 C; UNK is unkempt and MSI1 is Musashi-1; names of the RNAs are library labels; protein concentration not given here; high values mean tight binding).
Sequence of UniProt Q61474 (Q61474 whole entry): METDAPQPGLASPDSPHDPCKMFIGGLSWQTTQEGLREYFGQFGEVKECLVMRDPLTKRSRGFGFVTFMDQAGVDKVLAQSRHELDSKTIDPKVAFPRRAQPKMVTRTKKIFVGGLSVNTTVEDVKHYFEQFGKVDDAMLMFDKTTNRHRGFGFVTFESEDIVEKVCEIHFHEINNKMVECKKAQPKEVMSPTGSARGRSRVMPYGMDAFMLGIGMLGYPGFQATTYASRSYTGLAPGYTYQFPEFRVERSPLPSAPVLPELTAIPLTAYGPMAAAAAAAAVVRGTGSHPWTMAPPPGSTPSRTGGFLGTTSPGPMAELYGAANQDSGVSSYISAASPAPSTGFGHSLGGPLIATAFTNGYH
Work on B1 yielded a binding signal of 0.333 enrichment R.
For B2, the binding signal was 0.563 enrichment R.
In the case of B3, the binding signal is reported as 0.203 enrichment R.
B4 gave a binding signal of 4.65 enrichment R.
B5 was tested, and the binding signal was 0.407 enrichment R.
For B6, the binding signal was 0.296 enrichment R.
With B7 the binding signal was 0.334 enrichment R.
Work on B8 yielded a binding signal of 0.371 enrichment R.
With B9 the binding signal was 0.426 enrichment R.
B10 was tested, and the binding signal was 0.347 enrichment R.
Work on B11 yielded a binding signal of 0.346 enrichment R.
Binder B12 has a binding signal of 1.34 enrichment R.
B13 was tested, and the binding signal was 0.467 enrichment R.
With B14 the binding signal was 0.615 enrichment R.
B15 was tested, and the binding signal was 0.511 enrichment R.
In the case of B16, the binding signal is reported as 32 enrichment R.
Work on B17 yielded a binding signal of 7.73 enrichment R.
In the case of B18, the binding signal is reported as 2.86 enrichment R.
Binder B19 has a binding signal of 0.586 enrichment R.
Binder B20 has a binding signal of 3.44 enrichment R.
Work on B21 yielded a binding signal of 1.15 enrichment R.
Binder B22 has a binding signal of 0.833 enrichment R.
